Measured values reported in US9617324B2, “Ameliorating agent for blood-brain barrier dysfunction” (Nagasaki University, priority 2012, dated 2017).
Non-standard residues stand in square brackets, D forms with d. Residues, ends and D or L forms follow the SMILES beside them. No end group written: not given here. Nle = CCCC[C@H](N)C(=O)O; Nva = CCC[C@H](N)C(=O)O

Tested on: model of retinal ischemia (retinal ischemic dysfunction)
Details: ERG, intravitreal after 24 hours of ischemia

Compound | concentration required to obtain an equal effect, fold higher than P30 and P6
EVDEEEEEG [Peptide P9, reference compound] | about 6 fold

Same assay, conditions: P6 derivatives

Compound | activity in a model of retinal ischemia compared with P6
pEEVDEE (not fully specified (residue 1); listed as Homo sapiens) [Peptide D] | activity equal to or higher than that of P6
pEEVNEE (not fully specified (residue 1); listed as Homo sapiens) [Peptide B] | activity equal to or higher than that of P6

Same assay, conditions: […]; peptides with the Peptide 9 sequence shifted or deleted (FIG. 2)

Compound | activity / protective action on retinal ischemic dysfunction
ADNEVDEE | the activity declines
DNEVDEE [SEQ ID NO:12] | activity equal to that of a peptide comprising the amino acid sequence shown in SEQ ID NO:1
NEVDE [P+1N/−5C] | the activity declined
NEVDEEEEE [P+1N/−1C, NEVDEEEEE] | high protective action on retinal ischemic dysfunction

Same assay, conditions: […]; peptides with the Peptide 9 sequence shifted or deleted (FIG. 2); listed as 5 amino acid peptide comprising amino acids from position 51 to 55

Compound | activity / protective action on retinal ischemic dysfunction
NEVDE [P+1N/−5C] | the activity declines

Same assay, conditions: […]; peptides with the Peptide 9 sequence shifted or deleted (FIG. 2); listed as SEQ ID NO:13

Compound | activity / protective action on retinal ischemic dysfunction
NEVDEEE [P+1N/−3C, NEVDEEE] | activity equal to that of a peptide comprising the amino acid sequence shown in SEQ ID NO:1

Same assay, conditions: […]; peptides with the Peptide 9 sequence shifted or deleted (FIG. 2); listed as SEQ ID NO:30

Compound | activity / protective action on retinal ischemic dysfunction
NEVDEEEEE [P+1N/−1C, NEVDEEEEE] | higher protective action on retinal ischemic dysfunction than that of ProTα9

Same assay, conditions: […]; peptides with the Peptide 9 sequence shifted or deleted (FIG. 2); listed as SEQ ID NO:31

Compound | activity / protective action on retinal ischemic dysfunction
DNEVDEEEE [P+2N/−2C, D NEVDEEEE] | higher protective action on retinal ischemic dysfunction than that of ProTα9

Same assay, conditions: into vitreous body after 24 hours of ischemia; retinal potential after a week; 1 to 10 pmol

Compound | inhibitory effect on retinal ischemic dysfunction (ERG a-wave, b-wave)
ADNEVDEEEEEGGEEEEEEEEGDGEEEDGD [Peptide P30, reference compound] | almost equal and excellent inhibitory effect on retinal ischemic dysfunction
EVDEEEEEG [Peptide P9, reference compound] | weaker

Same assay, conditions: mouse, in vivo

Compound | activity in a model of retinal ischemia compared with P6 | dose showing the greatest protective effect [pmol/eye]
CCC[C@H](N)C(=O)N[C@@H](CCC(=O)O)C(=O)N[C@H](C(=O)N[C@@H](CC(=O)O)C(=O)N[C@@H](CCC(=O)O)C(=O)N[C@@H](CCC(=O)O)C(=O)O)C(C)C [Peptide H] (H-[Nva]EVDEE-OH) | activity equal to or higher than that of P6 | –
CCCC[C@H](N)C(=O)N[C@@H](CCC(=O)O)C(=O)N[C@H](C(=O)N[C@@H](CC(=O)O)C(=O)N[C@@H](CCC(=O)O)C(=O)N[C@@H](CCC(=O)O)C(=O)O)C(C)C [Peptide I] (H-[Nle]EVDEE-OH) | activity equal to or higher than that of P6 | –
Ac-NEVDEE [Peptide G] | activity equal to or higher than that of P6 | –
Ac-NEVDEE-NH2 [Peptide F, N-acetyl-P6-amide] | activity equal to or higher than that of P6 | –
NELDEE [Peptide K] | activity equal to or higher than that of P6 | –
NEVDED [Peptide N] | activity equal to or higher than that of P6 | –
NEVDEE [Peptide P6, NEVDEE] | – | 10
NEVDEE-NH2 [Peptide E, NEVDEE-NH2] | activity equal to or higher than that of P6 | –
NEVDEQ [Peptide O] | activity equal to or higher than that of P6 | –
NEVDQE [Peptide A, NEVDQE] | activity equal to or higher than that of P6 | –
NEVDQE-NH2 [Peptide U] | activity equal to or higher than that of P6 | –
NEVEEE [Peptide C, NEVEEE] | activity equal to or higher than that of P6 | –
NEVNEE [Peptide M] | activity equal to or higher than that of P6 | –
NEVNEE-NH2 [Peptide T] | activity equal to or higher than that of P6 | –
NQVDEE [Peptide J] | activity equal to or higher than that of P6 | –
Peptide P: P6 derivative peptide (EEVNEE) | activity equal to or higher than that of P6 | –
Peptide S: P6 derivative peptide (EEVDEE) | activity equal to or higher than that of P6 | –
